# In the supplement of paper PMC3724861:
# This is one part of the list.
# Test system: T1, Caupolican (Caup) homeodomain DNA-binding domain
# T1 sequence: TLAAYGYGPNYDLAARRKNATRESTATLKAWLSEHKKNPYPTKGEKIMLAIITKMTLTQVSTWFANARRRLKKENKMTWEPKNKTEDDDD
# Experiment: PBM E-score (8-mer, recovered from the published 9-mer minima) (E-score (dimensionless, -0.5 to 0.5)); Drosophila protein; higher = stronger relative binding preference, active = 0.31 or more
# Method in brief: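 Caup's homeodomain DNA-binding domain (residues 214-303) was made by in vitro transcription and translation and applied at 100 nM to custom-designed protein binding microarrays. Each value is an enrichment score that gives relative binding preference for a short DNA word, with higher meaning stronger. The 8-mer values were recovered from published 9-mer scores, each of which was the minimum of its two constituent 8-mer scores. A cutoff of 0.31 marks candidate sites.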
row,Sequence,PBM E-score
1,CTGTCCGA,inactive: 0.0437
2,CAAATCCC,inactive: -0.163
3,TTGGCCAA,inactive: -0.162
4,AGGCCGAC,inactive: -0.193
5,AGCACAGC,inactive: -0.0135
6,AAGAGTAT,inactive: 0.0151
7,TCGCTAGA,inactive: -0.0921
8,AAGGTTCA,inactive: -0.0326
9,TGGCTTAA,inactive: -0.00623
10,CAGAACAC,inactive: 0.215
11,TAACTCTA,inactive: -0.0432
12,GCGCTAGA,inactive: -0.0513
13,AGCACTGC,inactive: -0.152
14,AAGTCAGC,inactive: 0.0195
15,AATTTCGG,inactive: -0.109
16,ACTGTCCT,inactive: 0.0573
17,AAATTTTG,inactive: 0.0517
18,AATACCAC,inactive: 0.106
19,ATTGCCAG,inactive: -0.0611
20,ATAGTACC,inactive: 0.134
21,GCATAAGA,inactive: 0.00689

row,Sequence,PBM E-score
1,CTCGGCTA,inactive: -0.0955
2,CTCTGGAC,inactive: -0.0261
3,ATTTGGCG,inactive: -0.0922
4,AGACTCGA,inactive: 0.00039
5,GGTACCAC,inactive: 0.0349
6,ATGCGGAC,inactive: -0.0523
7,CGTCAATA,inactive: -0.0207
8,ACAGTGAC,inactive: 0.0286
9,CATCGGCG,inactive: -0.0491
10,TTCGCCAA,inactive: -0.129
11,CTGGTACC,inactive: 0.0519
12,GCTTCTCC,inactive: -0.21
13,ATAGCGCG,inactive: -0.0022
14,ACTCTGCG,inactive: -0.03
15,CCGCCACC,inactive: -0.196
16,ACACTCTG,inactive: 0.101
17,GTGCACAC,inactive: 0.016
18,CAACAAAC,inactive: 0.176
19,TAGCCCAA,inactive: -0.0852
20,GAACTATC,inactive: -0.0241
21,CTAATCCA,inactive: -0.003

row,Sequence,PBM E-score
1,AGCAAGAT,inactive: 0.097
2,AACGGGTC,inactive: -0.187
3,CTCTTGAC,inactive: 0.0391
4,CTCCCTTC,inactive: -0.184
5,GACGCGAC,inactive: -0.084
6,GTTTTGTA,inactive: 0.197
7,GCGAATCC,inactive: -0.124
8,ACCCGACT,≥ 0.0154
9,AAGCCGAG,inactive: -0.218
10,CGTACATA,active: 0.336
11,ACGAGAGG,inactive: -0.0983
12,AATACAGA,inactive: 0.18
13,TACTTCTA,≥ 0.121
14,GGCTGACA,inactive: 0.0801
15,CATTCGGC,inactive: -0.0463
16,TCTATTCA,inactive: 0.136
17,AGCGGTCA,inactive: -0.113
18,TCCGCGCA,≥ -0.0683
19,AGATGGCA,inactive: 0.0111
